Assay results published in ChEMBL document CHEMBL4888484, “Replenishing the malaria drug discovery pipeline: Screening and hit evaluation of the MMV Hit Generation Library 1 (HGL1) against asexual blood stage Plasmodium falciparum ,using a nano luciferase reporter read-out” (2022).
About 540 (0.36%) of roughly 150,000 compounds showed an effect of 50% or more. The list shows a part of the results.

The molecules below were run on Plasmodium falciparum (assay: Primary screen in NF54 nanoGlo assay, in single point, at 2uM, 72h; a lower Z score goes with more inhibition). Conditions: timepoint 72 hour.
Type: functional, Erythrocyte
With COC(=O)CC[C@H]1CCCCN1c1nc2c(s1)c(C)nn2C the “% Inhibition” value was -12% and the Z score was 2.04.
C#CCN[C@H](c1ccc(OC)cc1)C(F)(F)F was tested, and the “% Inhibition” value was -8% and the Z score was 1.27.
Cc1nccc(NCc2cccc(C(=O)N3CCN(c4cnccn4)CC3)c2)n1 was tested, and the “% Inhibition” value was -7% and the Z score was 0.89.
With N#Cc1ccnc(O[C@H]2CCCN(C(=O)Nc3cccs3)C2)c1 the “% Inhibition” value was -8% and the Z score was 1.26.
In the case of O=C(NCC1CCCCC1)C1=CCN(Cc2ccc(F)cc2)CC1, the “% Inhibition” value is reported as -8% and the Z score is reported as 1.16.
In the case of Cc1c(CNC(=O)N2CCN(C(=O)c3ccsc3)CC2)cnn1C, the “% Inhibition” value is reported as -17% and the Z score is reported as 1.77.
CC(=O)N1CC[C@H](NC(=O)CCNS(=O)(=O)c2ccc(Cl)cc2)C1 was tested, and the “% Inhibition” value was -2% and the Z score was 0.3.
For COc1ccc(-n2nc3nc(NCCc4ccccn4)nc(-c4cccc(F)c4F)c3c2N)cc1, the “% Inhibition” value was -6% and the Z score was 1.07.
With CN(C)c1ccc(NC(=O)c2cc3c(s2)CCCCC3)cn1 the “% Inhibition” value was 3% and the Z score was -0.49.
With Cn1c(-c2ccccn2)nn(Cc2ccc(Cl)c(Cl)c2)c1=O the “% Inhibition” value was 3% and the Z score was -0.4.
CC(C)(C)c1cc(C[C@@H]2C[C@H](NS(C)(=O)=O)C2(C)C)no1 was tested, and the “% Inhibition” value was -2% and the Z score was 0.28.
COc1ccc(NC(C)(C)C(=O)N[C@@H](C)CN2CCCC2)cc1 was tested, and the “% Inhibition” value was -5% and the Z score was 1.02.
Cn1nc(-c2cccnc2)c2c1NC(=O)C[C@@H]2c1cnc(N2CCCC2)nc1 was tested, and the “% Inhibition” value was -8% and the Z score was 1.49.
In the case of O=C1COC(=O)N1[C@H]1CCN(S(=O)(=O)c2cccs2)C1, the “% Inhibition” value is reported as -16% and the Z score is reported as 1.8.
For CCC(CC)C(=O)NCc1c(C)noc1C, the “% Inhibition” value was 7% and the Z score was -0.86.
In the case of Cn1nnc(CNC[C@H](O)c2ccc(Cl)c(Cl)c2)n1, the “% Inhibition” value is reported as 5% and the Z score is reported as -1.08.
COc1ccc(C(=O)NCC2(N3CCCC3)CCCC2)cc1C was tested, and the “% Inhibition” value was -2% and the Z score was 0.26.
Cc1nc(NCCCN2CCC[C@H](CO)C2)ccc1Cl was tested, and the “% Inhibition” value was 2% and the Z score was -0.33.
Cc1ccc(C(=O)N2CCc3cc4ccccc4nc32)cc1 was tested, and the “% Inhibition” value was -10% and the Z score was 1.13.
With c1cc(CN2C[C@@H]3CC[C@H]2CN(c2cnccn2)C3)c2nonc2c1 the “% Inhibition” value was -14% and the Z score was 1.37.
For Cc1nc(O)cc(CNC(=O)CO[C@H](c2ccccc2)C(F)(F)F)n1, the “% Inhibition” value was -5% and the Z score was 0.65.
With CN(Cc1ccsc1)C(=O)CNC(=O)c1ccc(F)cc1F the “% Inhibition” value was 1% and the Z score was -0.1.
In the case of Cc1ccccc1[C@H](C)NS(C)(=O)=O, the “% Inhibition” value is reported as -10% and the Z score is reported as 1.97.
With CCC(=O)N1c2ccc(S(=O)(=O)N3CCCCC3)cc2C[C@H]1C(=O)NCCCc1ccccc1 the “% Inhibition” value was -13% and the Z score was 1.66.
With COc1ccccc1N(CC(F)(F)F)C(=O)Cc1ccc(C)nc1 the “% Inhibition” value was 16% and the Z score was -2.82.
In the case of O=S(=O)(C1CC1)N1CCO[C@H]2COCC[C@H]21, the “% Inhibition” value is reported as -10% and the Z score is reported as 1.98.
In the case of Cc1cc(-n2nc(C)nc2-c2ccc([C@@H]3CCCN3)s2)ccn1, the “% Inhibition” value is reported as -13% and the Z score is reported as 1.36.
CCC(COc1ccccc1)NC(C)c1cnn(C)c1 (stereo not drawn) was tested, and the “% Inhibition” value was -9% and the Z score was 0.96.
With COc1ccc(O[C@H]2COCCN(C(=O)c3cccnc3)C2)cc1 the “% Inhibition” value was 16% and the Z score was -1.89.
COC(=O)[C@H](Cc1ccncc1)NC(=O)c1cc(Cl)cn1C was tested, and the “% Inhibition” value was -4% and the Z score was 0.47.
In the case of CC(=O)c1ccc(CNC(=O)C#Cc2ccccc2)nc1C, the “% Inhibition” value is reported as 1% and the Z score is reported as -0.21.
With Cc1ccoc1CNC(=O)N1CCn2c(C3CCCC3)nnc2[C@@H]1C the “% Inhibition” value was -9% and the Z score was 1.51.
For Cc1cn(C)nc1CNc1ncccc1C#N, the “% Inhibition” value was -4% and the Z score was 0.57.
c1ccc(-c2nc([C@H]3CCOC3)no2)c(-c2ncc[nH]2)c1 was tested, and the “% Inhibition” value was -6% and the Z score was 0.63.
With CC(C)NC(=O)c1nc(-c2ccc3c(c2)OCO3)no1 the “% Inhibition” value was -2% and the Z score was 0.37.
With CCC1(C(=O)NCCC2(NC(=O)OC(C)(C)C)CC2)CCC1 the “% Inhibition” value was -13% and the Z score was 1.55.
O=C1COc2c(Cl)cc(-n3ccnc3-c3ccc(C#CCO)cc3)cc2N1 was tested, and the “% Inhibition” value was -9% and the Z score was 1.78.
In the case of O=C1CN(CCOc2ccc(Cl)cc2)CCN1, the “% Inhibition” value is reported as -5% and the Z score is reported as 0.74.
In the case of C[C@H]1CN(C(=O)Cc2ccc3c(c2)CCCO3)CC(=O)N1, the “% Inhibition” value is reported as -4% and the Z score is reported as 0.69.
For COc1cc(C(=O)Nc2ccnc(C(=O)OC(C)(C)C)c2)sn1, the “% Inhibition” value was 22% and the Z score was -2.73.
O=C(C1CCS(=O)(=O)C1)N1CC(c2ccccc2)C(c2ncon2)C1 (stereo not drawn) was tested, and the “% Inhibition” value was -2% and the Z score was 0.45.
COc1ccc(CCNC(=O)C(C)C)cc1OC was tested, and the “% Inhibition” value was 0% and the Z score was 0.03.
For Cc1c(Cl)cccc1CNC(=O)CCCN1CCCCC1=O, the “% Inhibition” value was -5% and the Z score was 0.48.
With COc1ccc(C2=NO[C@@H](CNc3nc(C)ns3)C2)cc1F the “% Inhibition” value was -3% and the Z score was 0.55.
